# Some of the results follow.
# Tests used:
# Assay in all cases: glycan array binding signal (z-score within array); higher = stronger binding
# Conditions in all cases: glycan notation: IUPAC condensed, linker removed
# [1] = target: Neu5Ac(a2-3)[GalNAc(b1-4)]Gal(b1-4)Glc
# How it was run: (§1)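 The Consortium for Functional Glycomics database supplied 3228 glycan arrays, of which those lacking an available protein sequence were dropped. The binding signal, a within-array Z-score, was averaged across arrays of the same protein sequence and across linkers. Negative scores can be read as non-binding.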
# [2] = target: Neu5Ac(a2-3)[GalNAc(b1-4)]Gal(b1-4)GlcNAc
# How it was run: as §1
# [3] = target: Neu5Ac(a2-3)[GalNAc(b1-4)]Gal(b1-4)GlcNAc(b1-3)GalNAc
# How it was run: as §1
# [4] = target: Neu5Ac(a2-3)[Neu5Ac(a2-6)]GalNAc
# How it was run: as §1
# Neu5Ac(a2-6)Gal = target: Neu5Ac(a2-6)Gal
# How it was run: as §1
# [5] = target: Neu5Ac(a2-6)Gal(b1-3)GlcNAc(b1-3)[Gal(b1-4)GlcNAc(b1-6)]Gal(b1-4)Glc
# How it was run: as §1
# Neu5Ac(a2-6)Gal(b1-4)Glc = target: Neu5Ac(a2-6)Gal(b1-4)Glc
# How it was run: as §1
# [6] = target: Neu5Ac(a2-6)Gal(b1-4)GlcNAc
# How it was run: as §1
# [7] = target: Neu5Ac(a2-6)Gal(b1-4)GlcNAc(b1-2)Man(a1-3)Man(b1-4)GlcNAc(b1-4)GlcNAc
# How it was run: as §1
# [8] = target: Neu5Ac(a2-6)Gal(b1-4)GlcNAc(b1-2)Man(a1-3)[Gal(b1-4)GlcNAc(b1-2)Man(a1-6)]Man(b1-4)GlcNAc(b1-4)GlcNAc
# How it was run: as §1
# [9] = target: Neu5Ac(a2-6)Gal(b1-4)GlcNAc(b1-2)Man(a1-3)[GlcNAc(b1-2)Man(a1-6)]Man(b1-4)GlcNAc(b1-4)GlcNAc
# How it was run: as §1
# [10] = target: Neu5Ac(a2-6)Gal(b1-4)GlcNAc(b1-2)Man(a1-3)[GlcNAc(b1-2)Man(b1-4)GlcNAc(b1-2)Man(a1-6)]Man(b1-4)GlcNAc(b1-4)GlcNAc
# How it was run: as §1
# [11] = target: Neu5Ac(a2-6)Gal(b1-4)GlcNAc(b1-2)Man(a1-3)[Man(a1-6)]Man(b1-4)GlcNAc(b1-4)GlcNAc
# How it was run: as §1
# [12] = target: Neu5Ac(a2-6)Gal(b1-4)GlcNAc(b1-2)Man(a1-3)[Neu5Ac(a2-6)Gal(b1-4)GlcNAc(b1-2)Man(a1-6)]Man(b1-4)GlcNAc(b1-4)GlcNAc
# How it was run: as §1
# [13] = target: Neu5Ac(a2-6)Gal(b1-4)GlcNAc(b1-2)Man(a1-3)[Neu5Ac(a2-6)Gal(b1-4)GlcNAc(b1-2)Man(a1-6)]Man(b1-4)GlcNAc(b1-4)[Fuc(a1-6)]GlcNAc
# How it was run: as §1
# [14] = target: Neu5Ac(a2-6)Gal(b1-4)GlcNAc(b1-2)Man(a1-6)Man(b1-4)GlcNAc(b1-4)GlcNAc
# How it was run: as §1
# [15] = target: Neu5Ac(a2-6)Gal(b1-4)GlcNAc(b1-2)Man(a1-6)[Gal(b1-4)GlcNAc(b1-2)Man(a1-3)]Man(b1-4)GlcNAc(b1-4)GlcNAc
# How it was run: as §1
# [16] = target: Neu5Ac(a2-6)Gal(b1-4)GlcNAc(b1-2)Man(a1-6)[GlcNAc(b1-2)Man(a1-3)]Man(b1-4)GlcNAc(b1-4)GlcNAc
# How it was run: as §1
# [17] = target: Neu5Ac(a2-6)Gal(b1-4)GlcNAc(b1-2)Man(a1-6)[Man(a1-3)]Man(b1-4)GlcNAc(b1-4)GlcNAc
# How it was run: as §1
# [18] = target: Neu5Ac(a2-6)Gal(b1-4)GlcNAc(b1-3)Gal(b1-3)GlcNAc
# How it was run: as §1
# [19] = target: Neu5Ac(a2-6)Gal(b1-4)GlcNAc(b1-3)Gal(b1-4)GlcNAc
# How it was run: as §1
# [20] = target: Neu5Ac(a2-6)Gal(b1-4)GlcNAc(b1-3)Gal(b1-4)GlcNAc(b1-3)Gal(b1-4)GlcNAc
# How it was run: as §1
# [21] = target: Neu5Ac(a2-6)Gal(b1-4)GlcNAc(b1-3)Gal(b1-4)[Fuc(a1-3)]GlcNAc(b1-3)Gal(b1-4)[Fuc(a1-3)]GlcNAc
# How it was run: as §1
# [22] = target: Neu5Ac(a2-6)Gal(b1-4)GlcNAc(b1-3)GalNAc
# How it was run: as §1
# [23] = target: Neu5Ac(a2-6)Gal(b1-4)GlcNAc(b1-3)[Neu5Ac(a2-6)Gal(b1-4)GlcNAc(b1-6)]GalNAc
# How it was run: as §1
# [24] = target: Neu5Ac(a2-6)Gal(b1-4)GlcNAc(b1-6)GalNAc
# How it was run: as §1
# [25] = target: Neu5Ac(a2-6)Gal(b1-4)GlcNAc(b1-6)[Gal(b1-3)GlcNAc(b1-3)]Gal(b1-4)Glc
# How it was run: as §1
# [26] = target: Neu5Ac(a2-6)Gal(b1-4)GlcNAc6S
# How it was run: as §1
# Neu5Ac(a2-6)GalNAc = target: Neu5Ac(a2-6)GalNAc
# How it was run: as §1
# [27] = target: Neu5Ac(a2-6)GalNAc(b1-4)GlcNAc
# How it was run: as §1
# [28] = target: Neu5Ac(a2-6)GalNAc(b1-4)GlcNAc6S
# How it was run: as §1
# [29] = target: Neu5Ac(a2-6)GlcNAc(b1-4)GlcNAc
# How it was run: as §1
# [30] = target: Neu5Ac(a2-6)GlcNAc(b1-4)GlcNAc(b1-4)GlcNAc
# How it was run: as §1
# Neu5Ac(a2-8)Neu5Ac = target: Neu5Ac(a2-8)Neu5Ac
# How it was run: as §1
# [31] = target: Neu5Ac(a2-8)Neu5Ac(a2-3)Gal(b1-3)GalNAc(b1-4)[Neu5Ac(a2-8)Neu5Ac(a2-3)]Gal(b1-4)Glc
# How it was run: as §1
# [32] = target: Neu5Ac(a2-8)Neu5Ac(a2-3)Gal(b1-4)Glc
# How it was run: as §1
# [33] = target: Neu5Ac(a2-8)Neu5Ac(a2-3)[Gal(b1-3)GalNAc(b1-4)]Gal(b1-4)Glc
# How it was run: as §1
# [34] = target: Neu5Ac(a2-8)Neu5Ac(a2-3)[GalNAc(b1-4)]Gal(b1-4)Glc
# How it was run: as §1
# [35] = target: Neu5Ac(a2-8)Neu5Ac(a2-8)Neu5Ac
# How it was run: as §1
# [36] = target: Neu5Ac(a2-8)Neu5Ac(a2-8)Neu5Ac(a2-3)Gal(b1-4)Glc
# How it was run: as §1
# [37] = target: Neu5Ac(a2-8)Neu5Ac(a2-8)Neu5Ac(a2-3)[GalNAc(b1-4)]Gal(b1-4)Glc
# How it was run: as §1
# [38] = target: Neu5Ac(a2-8)Neu5Ac(a2-8)Neu5Ac(a2-8)Neu5Ac(a2-3)[GalNAc(b1-4)]Gal(b1-4)Glc
# How it was run: as §1
# [39] = target: Neu5Ac(b2-6)Gal(b1-4)GlcNAc
# How it was run: as §1
# Neu5Ac(b2-6)GalNAc = target: Neu5Ac(b2-6)GalNAc
# How it was run: as §1
# [40] = target: Neu5Ac9Ac(a2-3)Gal(b1-3)GlcNAc
# How it was run: as §1
# [41] = target: Neu5Ac9Ac(a2-3)Gal(b1-4)GlcNAc
# How it was run: as §1
# [42] = target: Neu5Ac9Ac(a2-6)Gal(b1-4)GlcNAc
# How it was run: as §1
# [43] = target: Neu5Gc(a2-3)Gal(b1-3)GlcNAc
# How it was run: as §1
# [44] = target: Neu5Gc(a2-3)Gal(b1-3)[Fuc(a1-4)]GlcNAc
# How it was run: as §1
# Neu5Gc(a2-3)Gal(b1-4)Glc = target: Neu5Gc(a2-3)Gal(b1-4)Glc
# How it was run: as §1
# [45] = target: Neu5Gc(a2-3)Gal(b1-4)GlcNAc
# How it was run: as §1
# [46] = target: Neu5Gc(a2-3)Gal(b1-4)[Fuc(a1-3)]GlcNAc
# How it was run: as §1
# [47] = target: Neu5Gc(a2-6)Gal(b1-4)GlcNAc
# How it was run: as §1
# Neu5Gc(a2-6)GalNAc = target: Neu5Gc(a2-6)GalNAc
# How it was run: as §1
# [48] = target: Neu5Gc(b2-6)Gal(b1-4)GlcNAc
# How it was run: as §1
binder,measurement,setting,value
"CvGal1 (Crassostrea virginica), A7Y0I5 (protein) MTYQISKISQPFTSYIPNGLHIGKHLLLRGRVSYGTEAFAINLQQNPEPCNGEVAFHFNPRPGEQQCVRNSFDGGSWMDEERDQPHFPFDEGRSFTLRIEVAEEGFRTYVNGKPYVNFSHRLDLGNVHYLYLTEGAEFYDISYQDRYTLPYKSEIPQQMNVGKAVRIRGASQDNDGFSVNFACDPDNENCAFHFNPRPNEGVVVRNANLGGWGDEERDYEAEFPFHPYNYFDAMFICTDDKYLVHVNDKYFTEFNHRGGVDASSFFNIVGNLDIQDVEYFEPLEDDFVKTIPSGLVKGDVLIFRGFMKPGGDTFSINFMNGYSVEDDIAFHLNPRVGEGQVVMNCCMGGAWGDEEREDIPSPLADREPFEVKVVVKKNKFKVYVNGKKCMKFAARGNLEDIKGVNIKGEAYVYEVKLERKLEDSWEYLPGGFRVGGWVVVQAIPKKGSEGFAINFRTGSDEDSDIAFHFNPRLQENCTIRNSCAGGAWGGEERDQPDFPFEKKDTCEIAIQAQPDRFVTYVNGKRYIEFNHRLPLESITCVELTGRADFFEPKFF",glycan array binding signal (z-score),[1],-0.269
same,glycan array binding signal (z-score),[2],-0.249
same,glycan array binding signal (z-score),[3],-0.275
same,glycan array binding signal (z-score),[4],-0.27
same,glycan array binding signal (z-score),Neu5Ac(a2-6)Gal,-0.286
same,glycan array binding signal (z-score),[5],-0.276
same,glycan array binding signal (z-score),Neu5Ac(a2-6)Gal(b1-4)Glc,-0.255
same,glycan array binding signal (z-score),[6],-0.274
same,glycan array binding signal (z-score),[7],-0.277
same,glycan array binding signal (z-score),[8],-0.293
same,glycan array binding signal (z-score),[9],-0.285
same,glycan array binding signal (z-score),[10],-0.297
same,glycan array binding signal (z-score),[11],-0.178
same,glycan array binding signal (z-score),[12],-0.272
same,glycan array binding signal (z-score),[13],-0.241
same,glycan array binding signal (z-score),[14],-0.263
same,glycan array binding signal (z-score),[15],-0.275
same,glycan array binding signal (z-score),[16],-0.285
same,glycan array binding signal (z-score),[17],-0.248
same,glycan array binding signal (z-score),[18],-0.286
same,glycan array binding signal (z-score),[19],-0.291
same,glycan array binding signal (z-score),[20],-0.294
same,glycan array binding signal (z-score),[21],-0.28
same,glycan array binding signal (z-score),[22],-0.271
same,glycan array binding signal (z-score),[23],-0.277
same,glycan array binding signal (z-score),[24],-0.286
same,glycan array binding signal (z-score),[25],-0.245
same,glycan array binding signal (z-score),[26],-0.276
same,glycan array binding signal (z-score),Neu5Ac(a2-6)GalNAc,-0.228
same,glycan array binding signal (z-score),[27],-0.254
same,glycan array binding signal (z-score),[28],-0.281
same,glycan array binding signal (z-score),[29],-0.303
same,glycan array binding signal (z-score),[30],-0.266
same,glycan array binding signal (z-score),Neu5Ac(a2-8)Neu5Ac,-0.277
same,glycan array binding signal (z-score),[31],-0.273
same,glycan array binding signal (z-score),[32],-0.274
same,glycan array binding signal (z-score),[33],-0.239
same,glycan array binding signal (z-score),[34],-0.265
same,glycan array binding signal (z-score),[35],-0.236
same,glycan array binding signal (z-score),[36],-0.232
same,glycan array binding signal (z-score),[37],-0.265
same,glycan array binding signal (z-score),[38],-0.286
same,glycan array binding signal (z-score),[39],-0.174
same,glycan array binding signal (z-score),Neu5Ac(b2-6)GalNAc,-0.288
same,glycan array binding signal (z-score),[40],-0.297
same,glycan array binding signal (z-score),[41],-0.276
same,glycan array binding signal (z-score),[42],-0.285
same,glycan array binding signal (z-score),[43],-0.239
same,glycan array binding signal (z-score),[44],-0.284
same,glycan array binding signal (z-score),Neu5Gc(a2-3)Gal(b1-4)Glc,-0.311
same,glycan array binding signal (z-score),[45],-0.262
same,glycan array binding signal (z-score),[46],-0.283
same,glycan array binding signal (z-score),[47],-0.244
same,glycan array binding signal (z-score),Neu5Gc(a2-6)GalNAc,-0.195
same,glycan array binding signal (z-score),[48],-0.285
